Among all 150,000 compounds or so, about 540 (0.36%) showed an effect of 50% or more. This is one part of the list.

The subject of this test is Plasmodium falciparum. The test can be described thus: Primary screen in NF54 nanoGlo assay, in single point, at 2uM, 72h; a lower Z score goes with more inhibition. The class given is functional, Erythrocyte. Conditions: timepoint 72 hour.
As to `O=C(NCc1ccncc1)N1CCC([C@H](O)C(F)(F)F)CC1`, the % Inhibition (as a rule, the relative decrease from the control value, in per cent) was -6% and the Z score came to 0.72.
Turning to `CC(C)c1cc(NCCCc2ncc[nH]2)ncn1`, the “% Inhibition” value was -3% and the Z score was 0.54.
For the compound `Cc1nnc(N2CCN(c3ncccn3)CC2)c(C#N)c1C`, the “% Inhibition” value was -19% and the Z score amounted to 2.11.
On to `CC(C)Oc1cc(Br)cc(NC(=O)[C@H]2C[C@H](O)CN2)c1`, for which the “% Inhibition” value is listed as -12% and the Z score is 1.37.
Taken in the same sequence, the figures for `Cc1ccc(C)c(CNC[C@]2(O)CCCN3CCCC[C@@H]32)c1` were 26% and -3.34.
`C=CC[C@]1(CO)CCCN(C(=O)c2csc(NC)n2)C1`: the “% Inhibition” value was determined as 3% and the Z score is given as -0.48.
For the compound `O=C(Nc1ccccc1O)C1CCN(c2nc(N3CCCC3)nc(N3CCCC3)n2)CC1`, the “% Inhibition” value is listed as -6% and the Z score is 1.08.
Turning to `COCCN(CC(N)=O)S(=O)(=O)c1ccc(C)cc1C`, the “% Inhibition” value is recorded as -7% and the Z score is given as 1.3.
On to `CN(CC1CCCCC1O)C(=O)NC1CCc2ccccc21` (stereo not given), for which the “% Inhibition” value amounted to 7% and the Z score was -0.84.
As for `NC(=O)CC1CCN(S(=O)(=O)c2cccc3ccncc23)CC1`, the “% Inhibition” value turned out to be 1% and the Z score was -0.19.
As to `Cc1cc(CNC(=O)Nc2ccnc(C(=O)OC(C)(C)C)c2)on1`, the “% Inhibition” value is reported as -11% and the Z score is on record as 1.64.
For the compound `O=C(Nc1ccccc1)N(CCOCCOCCN(Cc1ccccc1)C(=O)Nc1ccccc1)Cc1ccccc1`, the “% Inhibition” value is reported as -1% and the Z score came out at 0.19.
Taken in the same sequence, the figures for `COC(=O)c1ccc(CN2CCC(N3C[C@@H](C)O[C@@H](C)C3)CCC2=O)cc1` (stereo not given in full) were -11% and 1.26.
As for `COc1nccc(-c2ccc(S(=O)(=O)N3CCCCC3)cc2)c1C#N`, the “% Inhibition” value is -12% and the Z score amounted to 2.23.
For `CCCOC1(CNC(=O)c2cn[nH]c2C)CCCCC1`, the “% Inhibition” value was -1% and the Z score turned out to be 0.2.
Consider `CC(C)c1cc(NC(=O)NCCCN2CCNC(=O)C2)n(C)n1`, for which the “% Inhibition” value is reported as 1% and the Z score is -0.11.
Consider `C[C@]1(c2nc(C3CCCCCC3)no2)CCNC1`, for which the “% Inhibition” value is reported as -1% and the Z score is reported as 0.15.
As to `Cc1cc(C)cc(OCC(=O)NCc2ccc(-c3nn4c(C)nnc4s3)cc2)c1`, the “% Inhibition” value is -8% and the Z score amounted to 1.16.
In the case of `Cc1cnccc1C(=O)NC[C@H]1CCN(Cc2nc3ccccc3[nH]2)C1`, the “% Inhibition” value was -4% and the Z score is given as 0.66.
In the case of `O=C(C[C@H](c1ccc(Cl)c(Cl)c1)c1c[nH]c2ccccc12)NC1CCN(Cc2ccccc2)CC1`, the “% Inhibition” value was 1% and the Z score was -0.19.
For `CCc1cc(N[C@H]2CC(C)(C)Cc3nc(N4CCC(O)CC4)ncc32)nc(C)n1`, the “% Inhibition” value is given as -10% and the Z score turned out to be 1.9.
For the compound `Cc1ccc(N(C)Cc2csc(C(C)C)n2)nn1`, the “% Inhibition” value is 1% and the Z score is reported as -0.1.
With `Cc1cnc(C(=O)N2CCOc3ccc(C(=O)NCc4ccccc4)cc3C2)cn1`, the “% Inhibition” value is -10% and the Z score was 1.82.
For `CCCN(CC(=O)NCCc1ccc(S(N)(=O)=O)cc1)CC(=O)N(C)C`, the “% Inhibition” value was found to be 2% and the Z score is reported as -0.27.
For `O=S(=O)(Nc1ccccc1)c1ccc(-c2cnc(C3CC3)o2)cc1`, the “% Inhibition” value was -5% and the Z score was 0.92.
`Cc1ccc(C)c(Cn2cccc2CNC(=O)NC2CCCC2)c1`: the “% Inhibition” value stood at 4% and the Z score is reported as -0.65.
In the same order, the values of `O=C1CCC2(CCN(Cc3ccc(F)c(Cl)c3F)CC2)CN1C1CC1` are -2% and 0.29.
With `CC(=O)Nc1ccc(Cc2nc3cc(C(=O)N4CCN(c5ccc(Cl)cc5)CC4)ccc3[nH]2)cc1`, the “% Inhibition” value was -16% and the Z score amounted to 1.83.
Consider `CC1CC(C)CN(C(=O)CCN2C(=O)c3ccccc3C2=O)C1` (stereo not given), for which the “% Inhibition” value was -10% and the Z score came out at 1.43.
In the same order, the values of `CC(NC1CCc2c(O)cccc21)c1ccc(N2CCCC2=O)cc1` (stereo not given) are -8% and 0.94.
As to `CCN(C(=O)Nc1nnc(C)s1)[C@@H](C)c1cc2ccccc2o1`, the “% Inhibition” value was -2% and the Z score is listed as 0.22.
Take `CCOCCCNC(=O)c1cc2c(=O)[nH]c(-c3ccccc3)cn2n1`: the “% Inhibition” value is -11% and the Z score is reported as 1.46.
For `CC(C)(C)c1ccccc1S(=O)(=O)Nc1n[nH]c2ccccc12`, the “% Inhibition” value was -7% and the Z score was 1.12.
Taken in the same sequence, the figures for `COc1ccc(CCC(=O)N(Cc2cccn2C)C2CC2)cc1` were 0% and -0.08.
On to `CC(C)[C@H]1CC[C@H](C(=O)N[C@H](Cc2ccccc2)C(=O)N2CCOCC2)CC1`, for which the “% Inhibition” value is listed as -13% and the Z score is on record as 1.81.
As to `CC(C)=CCN1CCC(NC(=O)c2ccc3[nH]cnc3c2)CC1`, the “% Inhibition” value came to 1% and the Z score is -0.13.
In the same order, the values of `COC(=O)c1cc(NC(=O)C2CCCCC2)cn1C` are -19% and 3.63.
Take `CCOc1ccccc1[C@@H]1CC(=O)NC(NC(=O)c2cccnc2)=N1`: the “% Inhibition” value is given as -3% and the Z score was determined as 0.58.
For the compound `COc1cc(-c2c3c(C)nn(-c4ccccc4)c3nc3[nH]c(=O)[nH]c(=O)c23)cc(OC)c1O`, the “% Inhibition” value is -7% and the Z score was 0.77.
Regarding `CC(C)Oc1cc(Br)cc(C(=O)N(C)C2(CO)CC2)c1`, the “% Inhibition” value is given as 17% and the Z score is listed as -2.2.
Turning to `Fc1cccc(-c2cncc(CN3CCCCC3)c2)c1F`, the “% Inhibition” value is -3% and the Z score was determined as 0.27.
On to `O=C(CCc1ccccc1)n1nc(NCc2ccccc2Cl)nc1NCc1ccccc1Cl`, for which the “% Inhibition” value worked out at 8% and the Z score is on record as -1.04.
As to `COc1ccc(CN2CC(c3nc(CCN(C)C(=O)C4CCOCC4)no3)C2)cc1C`, the “% Inhibition” value is -13% and the Z score came to 1.71.
With `COc1ccc(CN(C[C@H](O)COC(C)(C)C)C(C)C)cc1OC`, the “% Inhibition” value is reported as -7% and the Z score was found to be 0.72.
Taken in the same sequence, the figures for `O=C(Cn1cccc(S(=O)(=O)N2CCOCC2)c1=O)Nc1ccc(F)c(Cl)c1` were -10% and 1.22.
Turning to `O=C(Cc1ccc(F)cc1Cl)N1CC2COCC(C1)O2`, the “% Inhibition” value is -4% and the Z score stood at 0.58.
For the compound `CCc1ncc(S(=O)(=O)N2CC[C@H](c3nccn3C)C2)s1`, the “% Inhibition” value is on record as 2% and the Z score is given as -0.27.
Regarding `O=C(Nc1nnc(-c2ccc(Br)o2)o1)C1CCCC1`, the “% Inhibition” value is recorded as -8% and the Z score is on record as 1.5.
Take `Cc1ccc(-c2c[n+]([O-])c3nc(-c4ccc(Br)cc4)cn3n2)cc1`: the “% Inhibition” value was -4% and the Z score was found to be 0.44.
Take `c1ccc(-c2noc(-c3cc(N4CCCC4)ccn3)n2)nc1`: the “% Inhibition” value is given as -22% and the Z score was determined as 2.93.
Taken in the same sequence, the figures for `O=C(NCC1CCCCC1)c1coc(CN2CCN(c3ncccn3)CC2)n1` were -10% and 1.38.
Take `O=C(O)[C@H]1CCCN1CCOc1c(Cl)cccc1Cl`: the “% Inhibition” value is -11% and the Z score worked out at 1.4.
`Cc1csc(CNC(=O)c2cccs2)n1`: the “% Inhibition” value is listed as -5% and the Z score is given as 0.69.
Turning to `O=C(NCc1ccc(Cl)cc1)c1ccccc1CN1CCOCC1`, the “% Inhibition” value is reported as -2% and the Z score turned out to be 0.19.
Regarding `COc1cccc2c1N(CC(=O)N(C1CCCC1)C1CCS(=O)(=O)C1)CCC2C` (stereo not given), the “% Inhibition” value is recorded as -11% and the Z score came to 1.85.
In the case of `C[C@@H](CNS(=O)(=O)C1CC1)NCc1ccc(C(=O)N(C)C)o1`, the “% Inhibition” value is -12% and the Z score was found to be 1.07.
Regarding `CC(=O)N1CCN(C(=O)c2cccs2)[C@H](C(=O)N[C@@H](CC2CCCCC2)C(N)=O)C1`, the “% Inhibition” value worked out at 26% and the Z score is reported as -2.91.
On to `Cc1cc(NCCS(C)(=O)=O)nc(C2CCC2)n1`, for which the “% Inhibition” value is -6% and the Z score worked out at 1.06.
For the compound `COC[C@H](C)NC(=O)CS(=O)(=O)c1cc(F)ccc1F`, the “% Inhibition” value was determined as 2% and the Z score is on record as -0.4.
On to `Cc1ccc(-n2cc(-c3noc(-c4cccc(N(C)C)c4)n3)nn2)cc1`, for which the “% Inhibition” value is reported as -20% and the Z score was found to be 3.84.
In the same order, the values of `O=C(c1ccccc1Oc1ccccc1)N1CCO[C@]2(CNCCOC2)C1` are 5% and -0.96.
Take `C[C@@H](Cn1cccn1)NC(=O)c1ccco1`: the “% Inhibition” value is -3% and the Z score turned out to be 0.39.
Turning to `CCC(NC1CC(=O)N(CC(F)(F)F)C1)C(=O)OC` (stereo not given), the “% Inhibition” value is on record as -13% and the Z score is 1.16.
On to `O=C(N[C@@H](CC1CCOCC1)c1ccccc1)C(F)F`, for which the “% Inhibition” value is given as -9% and the Z score is recorded as 1.13.
In the same order, the values of `O=C(Cn1ccc(=O)c2sccc21)NC[C@H]1CCCO1` are -5% and 0.53.
On to `COc1cc(NC(=O)[C@@H]2Cn3cccc3C(=O)N2)cc(OC)c1`, for which the “% Inhibition” value is on record as -12% and the Z score stood at 1.84.
For `CCn1cc(C)c(C(=O)O)c1CC(=O)NCc1ccccc1Cl`, the “% Inhibition” value was -8% and the Z score is reported as 1.05.
For `C#CCC(NC(=O)C(O)c1cc(Cl)cc(Cl)c1)C(N)=O` (stereo not given), the “% Inhibition” value is -10% and the Z score worked out at 1.22.
With `COCCn1c(N)c(N(Cc2ccccc2)C(=O)CCCc2c[nH]c3ccccc23)c(=O)[nH]c1=O`, the “% Inhibition” value amounted to 9% and the Z score is reported as -1.47.
Take `Cc1ccc(Cl)cc1S(=O)(=O)N1CCCN(C2CCC2)CC1`: the “% Inhibition” value is on record as -8% and the Z score worked out at 1.3.
`CCN1CCC(N(C(=O)Cc2ccccc2OC(C)C)C2CC2)CC1`: the “% Inhibition” value was -1% and the Z score is 0.2.
Take `O=C(COC(=O)Cc1ccc(O)cc1Cl)NCC1CCCCC1`: the “% Inhibition” value is -9% and the Z score came to 1.82.
As for `COCCN1CCN([C@@H](C)C(=O)N(C)C(C)C)CC1=O`, the “% Inhibition” value is -5% and the Z score was 0.65.
As to `Cn1nncc1CN[C@H]1CCCC[C@@H]1F`, the “% Inhibition” value was -20% and the Z score worked out at 2.34.
For the compound `Cc1noc(C)c1C(=O)NCC1CCN(Cc2cnc(-c3ccco3)nc2)CC1`, the “% Inhibition” value amounted to 8% and the Z score is recorded as -1.12.
In the same order, the values of `N#Cc1ccccc1Oc1ccc(C(=O)Nc2nnc[nH]2)cc1Cl` are 7% and -0.82.
For `CC1CCCc2ccccc2C1NS(=O)(=O)c1cnnn1C` (stereo not given), the “% Inhibition” value is -1% and the Z score was 0.06.
As for `O=C1c2ccccc2N[C@]2(C(=O)Nc3cc(F)ccc32)N1C1CC1`, the “% Inhibition” value is reported as 7% and the Z score was -1.24.
Turning to `O=C(c1cccc(Oc2ccccc2)c1)N1[C@H]2CCNC[C@@H]1CC2`, the “% Inhibition” value is -13% and the Z score was 1.22.
In the case of `Cc1ccc(Cl)c(NC(=O)Nc2csc3c2CCCC3)c1`, the “% Inhibition” value is listed as 2% and the Z score was -0.25.
Taken in the same sequence, the figures for `Cn1nnnc1-c1ccccc1NC(=O)C[C@H]1CCCO1` were -8% and 1.19.
On to `CCOC(=O)Cc1c(C)nc2ncnn2c1N1CCC(C(=O)OCC)CC1`, for which the “% Inhibition” value is given as -9% and the Z score was determined as 1.18.
Regarding `O=C(Nc1nc2ccccc2s1)c1ccc(-n2cnnn2)cc1`, the “% Inhibition” value is -12% and the Z score is on record as 2.36.
For `c1cncc(CNc2nc3cccnc3nc2NCc2cccnc2)c1`, the “% Inhibition” value is given as 2% and the Z score is given as -0.21.
As to `CCCc1nnsc1C(=O)NCc1nccn1C(C)C`, the “% Inhibition” value is on record as -12% and the Z score is on record as 1.88.

The values are drawn from ChEMBL document CHEMBL4888484, “Replenishing the malaria drug discovery pipeline: Screening and hit evaluation of the MMV Hit Generation Library 1 (HGL1) against asexual blood stage Plasmodium falciparum ,using a nano luciferase reporter read-out” (2022).
